{"source": "paper PMC7031403", "about": "“A molecular switch regulating transcriptional repression and activation of PPARγ” (Nature Communications, 2020)", "test_system": "PPARγ LBD (WT or mutant) with NCoR ID2 peptide"}
{"smiles": "O=C(Nc1ccncc1)c1cc([N+](=O)[O-])ccc1Cl", "note": "[T0070907]", "values": [{"measurement": "effect on binding of corepressor ID2 peptides to the PPARγ LBD", "setting": "WT, NCoR ID2 and SMRT ID2 peptides", "value": "enhances the binding"}, {"measurement": "change in corepressor-peptide interaction, mutants", "setting": "Y327A and K367A", "value": "no change in corepressor-peptide interaction"}]}
